Experimental data: PubChem BioAssay AID1159614 (National Center for Advancing Translational Sciences (NCATS), 2016)
The campaign covered roughly 45,000 compounds. About 65 (0.1%) were called active. Calls follow the shape of the dose curve; as a rule, active = well fitted activation curve with a large enough effect; inconclusive = small, poorly fitted or top-dose-only effect; inactive = no such curve, though single readings can be large or run the other way. This is one part of the list.

molecular target: Galactocerebrosidase (Homo sapiens) (UniProt P54803); test: A Novel Cell-Based Assay to Identify Small Molecules for B -Galactocerebrosidase; conditions: 145M-Twi-hGALC-G270D cells (Twitcher mouse brain line with human GALC G270D), HMU-beta-Gal fluorescence, 48 h; series mostly up to 57.5 µM; activation: at the top concentration; also: 0% is about no effect; nearly all actives have a fitted effect of over 65% in size
In short: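 Fluorogenic HMU-b-Gal hydrolysis (0.1 mM final, pH 5.2 citrate-phosphate with 1 mg/mL sodium taurocholate; carbonate stop buffer) measures mutant GALC activity after compound treatment of live 145M-Twi Twitcher brain cells stably carrying human GALC-G270D, with wild-type GALC line alongside; activation sought.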

UniProt P54803, sequence (P54803 whole entry, looked up): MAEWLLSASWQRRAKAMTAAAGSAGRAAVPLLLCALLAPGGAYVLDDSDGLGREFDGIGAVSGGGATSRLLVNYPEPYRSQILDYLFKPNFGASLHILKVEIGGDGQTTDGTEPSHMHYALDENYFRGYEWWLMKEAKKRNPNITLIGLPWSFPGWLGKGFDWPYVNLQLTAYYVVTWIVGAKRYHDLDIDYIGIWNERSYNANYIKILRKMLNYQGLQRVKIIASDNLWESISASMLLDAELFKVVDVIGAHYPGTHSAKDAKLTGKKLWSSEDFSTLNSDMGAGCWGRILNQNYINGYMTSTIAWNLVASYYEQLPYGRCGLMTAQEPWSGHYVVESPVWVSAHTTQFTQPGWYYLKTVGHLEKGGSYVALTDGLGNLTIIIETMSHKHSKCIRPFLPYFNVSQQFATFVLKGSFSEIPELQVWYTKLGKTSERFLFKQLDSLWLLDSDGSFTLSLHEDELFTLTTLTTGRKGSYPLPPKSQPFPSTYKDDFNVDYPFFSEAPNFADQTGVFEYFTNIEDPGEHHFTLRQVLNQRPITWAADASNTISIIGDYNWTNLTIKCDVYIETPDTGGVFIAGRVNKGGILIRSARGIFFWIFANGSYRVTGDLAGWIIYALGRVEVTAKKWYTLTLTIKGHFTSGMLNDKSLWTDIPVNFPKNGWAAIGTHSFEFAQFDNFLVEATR

activation, inactive:
Cc1cc(C)c2oc(-c3cccc(NC(=O)c4ccc(-c5cccc([N+](=O)[O-])c5)o4)c3)nc2c1 0.308%, COc1ccc(CN2CCN(C(c3ccc(F)cc3)c3ccc(F)cc3)CC2)c(OC)c1OC -13.6%, COc1ccc(NC(=O)c2cnc(N3CCCC3)nc2)cc1OC -2.16%, CCCC1=Nc2cc(C(=O)N3CCC(C(=O)OCC)CC3)ccc2Sc2ccccc21 -4.4%, COc1ccc(-n2c(SCC(=O)NCc3ccc(F)cc3)nc3c([nH]c4ccccc43)c2=O)cc1 -17.5%, O=C(CCSCc1cccc(Cl)c1)NCCc1ccc(Cl)cc1 -10.4%, CCc1ccc(C(=O)C(C)CN2CCCCC2)cc1 (stereo unspecified) -3.99%, O=C(c1ccccc1)N1CCc2cc(CNS(=O)(=O)c3ccc(Cl)s3)ccc21 -2.69%, CC(=O)Nc1cccc(NC(=O)Cn2cnc3c(oc4ccccc43)c2=O)c1 -16%, COc1ccccc1CNC(=O)CCCCn1c(=O)c2ccccc2n(Cc2ccccc2F)c1=O -2.49%, Cc1nn2cc(-c3ccc(OC(C)C)cc3)nc2s1 1.93%, Cn1c(=O)n(C)c2cc(N3CCOCC3)c(NS(=O)(=O)c3cccc(C#N)c3)cc21 -6.25%, Cc1oc(-c2ccc(Cl)cc2)nc1Cn1c(=O)cc(C)c2c(C)nn(-c3ccccc3)c21 -9.33%, Cc1cccc(-c2nc3c(cnn3-c3ccccc3)c(=O)n2-c2ccc(Cl)cc2)c1 -18.7%, Cc1ccc(-c2nc3c4c(-c5ccccc5)c(-c5ccccc5)oc4ncn3n2)cc1 -17.9%, Cc1ccc(CCNC(=O)C2CCN(S(=O)(=O)c3ccc4c(ccn4C)c3)CC2)cc1 -16.2%, CCOc1ccc(NC(=O)c2c(C)oc3nc(C)nc(N4CCOCC4)c23)cc1 -2.95%, Cc1ccc(CNC(=O)CSc2nc3ccccc3nc2Cc2ccc(C)cc2)cc1 -10.7%, COc1ccc(NC(=O)CSc2nc(C)cc(C)c2C(=O)Nc2ccccc2OC)cc1 -11.7%, COc1ccc(S(=O)(=O)NCC(c2ccco2)S(=O)(=O)c2cccs2)cc1F (stereo unspecified) -13.6%, COC(=O)c1cc(S(=O)(=O)NCC2CCN(Cc3cccc(F)c3)CC2)cn1C -21.2%, Cn1c(=O)c2c(-c3ccc(Cl)cc3)n(CCc3ccccc3)cc2n(C)c1=O 2.22%, Cc1ccc2nc(Cl)c3cc(C(=O)N4CCCCC4)sc3c2c1 -8.37%, CN(C(=O)c1c(O)c2ccccc2n(C)c1=O)c1ccccc1 -14.6%, OCc1ccccn1 -13.3%, Cc1cc(C)c(Cn2c(=O)n(CCCC(=O)NCc3ccc4c(c3)OCO4)c(=O)c3sccc32)c(C)c1 -15.2%, CNC(=O)C1CCC(Cn2c(=O)c3sccc3n(CC(=O)N3CCC(C)CC3)c2=O)CC1 (stereo unspecified) -10.9%, Cc1ccc(-n2ncc(C(=O)NCc3ccco3)c2C2CCN(C(=O)OC(C)(C)C)CC2)cc1 -8.54%, CCc1ccc(C(=O)CC2(O)C(=O)N(CCc3ccccc3)c3ccc(Cl)cc32)cc1 (stereo unspecified) 4%, Cn1c(=O)c2c(nc(SCC(=O)Nc3ccc(F)c(F)c3)n2Cc2ccccc2F)n(C)c1=O 1.2%, Cn1nnc2c(NCc3c(F)cccc3F)ncnc21 -19.3%, COc1ccc(N(C(=O)Cn2nnc3ccccc32)C(C(=O)NCc2ccccc2)c2ccc(F)cc2)cc1 (stereo unspecified) -6.14%, COc1ccc(CCNC(=O)c2cc(=O)c3cc(C)c(C)cc3o2)cc1OC -16.8%, COc1ccc(N2CCN(Cc3nc4c(c(=O)[nH]c(=O)n4C)n3Cc3ccccc3F)CC2)cc1 -0.383%, O=C(COCc1cc(-c2ccc3c(c2)OCO3)on1)Nc1cc(Cl)ccc1O -5.21%, COc1ccc(-c2noc(CNC(=O)COc3cccc(C)c3C)n2)cc1 -15.8%, O=C(NCCc1ccc(Cl)cc1)C1CCN(S(=O)(=O)c2ccc3[nH]ccc3c2)CC1 -12.3%, COc1ccc(CCNC(=O)C(=O)NCC(c2cccs2)S(=O)(=O)c2ccc(F)cc2)cc1 (stereo unspecified) -12.7%, COc1ccc(-c2nc(CSCC(=O)NCc3ccccc3Cl)c(C)o2)cc1OC -14%, CCOC(=O)c1c(C)oc2nc(C)nc(NCCCN3CCN(c4cc(C)ccc4C)CC3)c12 -13.7%, CC(C)c1ccc(Nc2c(-c3ccccn3)nc3ccccn23)cc1 -11.1%, Cc1ccc(CCNC(=O)c2ccc(Nc3nc4ccccc4n4nnnc34)cc2)cc1 -8.29%, CCCCCN1C(C(=O)c2ccccc2)=C(OC(=O)CC)c2ccccc2S1(=O)=O -19.9%, COc1cc(OC)c(NC(=O)CCc2c(C)nc3c4c(C)cc(C)nc4nn3c2C)cc1Cl -13.8%, FC(F)(F)c1cccc(Nc2c3c(nc4ccc(Cl)cc24)CCC3)c1 -20.3%, CC(NC(=O)c1ccc2c(c1)sc1nc(-c3ccc(F)cc3)cn12)C12CC3CC(CC(C3)C1)C2 (stereo unspecified) -10.6%, COc1cc(NC(=O)C2CCN(S(=O)(=O)c3c(C)noc3/C=C/c3ccccc3F)CC2)cc(OC)c1OC -7.49%, CC1Cn2c(C(=O)NCc3ccccc3Cl)cc3cccc(c32)S1 (stereo unspecified) -16.2%, COc1ccc(NC(=O)CCn2cnc3onc(-c4ccc(F)cc4)c3c2=O)cc1OC -25.8%, Cc1cccc(NC(=O)c2cc3c(=O)n(Cc4cccnc4)ccc3nc2C)c1 -16.2%, CCC(Sc1nc2n[nH]c(C)c2c(=N)n1-c1ccccc1Cl)C(=O)N(CC)CC (stereo unspecified) -27%, N#Cc1cc2c(=O)n3ccccc3nc2n(-c2nnc(SCc3ccccc3Cl)s2)c1=O -9.4%, CCN(CCCNC(=O)Cn1ncc2c([nH]c3ccc(C)cc32)c1=O)c1ccccc1 0.0774%, COc1ccc(OC(=O)c2nc(SCc3ccccc3C)ncc2Cl)cc1 -18.8%, COc1ccnc(CS(=O)c2nc3ccc(OC(F)F)cc3[nH]2)c1OC (stereo unspecified) 6.85%, Cc1ccccc1OCC(=O)Nc1ccccc1OCc1cc(=O)n2ccccc2n1 -15.1%, CCOC(=O)Cn1c(=O)n(CC2CCCO2)c2nc(-c3cc(OC)ccc3OC)nc(C(N)=O)c21 (stereo unspecified) -7.23%, COc1ccc(CCNC(=O)CCc2c(C)nc3cc(-c4cccc(F)c4)nn3c2C)cc1OC 2.57%, Cc1ccc(S(=O)(=O)NCCc2nnc3ccc(SCC(=O)Nc4ccc(F)cc4F)nn23)cc1 -12.8%, CCCOc1ccc(C(=O)N(Cc2ccco2)Cc2ccco2)cc1 -8.59%, O=C(NCC(c1cccs1)S(=O)(=O)c1cccs1)c1c(F)cccc1F (stereo unspecified) -10.5%, CC(C)c1nn2c(=O)cc(COC(=O)c3ccc(NC(=O)c4cccs4)cc3)nc2s1 -5.95%, COc1ccccc1-n1c(=O)n(C)c2c(C(N)=O)nc(-c3cccc(OC)c3OC)nc21 -6.72%, Cc1ccc(CCNC(=O)CCCc2nnc3n(C)c(=O)c4sccc4n23)cc1 -14.1%, COc1ccc(C(=O)Nc2cccc(C(=O)OCc3cc(=O)n4c5c(sc4n3)CCCC5)c2)cc1 -14.9%, COc1cccc(CSc2nc3n(n2)C(CC(C)C)C(C(=O)Nc2ccccc2C)=C(C)N3)c1 (stereo unspecified) -8.46%, Cc1cc(C)c2c(CC(=O)Nc3cc(C(F)(F)F)ccc3Cl)coc2c1 -10.9%, Cc1ccc2nc(NC(=O)c3ccc(S(=O)(=O)N4CCCc5ccccc54)cc3)sc2c1 -3.6%, COCCCn1c(=O)c2sccc2n2c(CCCC(=O)Nc3ccc(F)c(F)c3)nnc12 4.88%, O=C(O)C1(C(=O)O)CCC1.[NH2-].[NH2-].[Pt+2] -2.25%, Cc1ccccc1-c1nc2scc(CCNC(=O)C(=O)Nc3ccc(F)cc3F)n2n1 -11.2%, CN1CCN(C2(CNC(=O)c3ccc([N+](=O)[O-])cc3)CCCCC2)CC1 5.35%, Cc1cc(C)nc(NS(=O)(=O)c2ccc(NC(=O)c3cc(=O)c4ccc(C)c(C)c4o3)cc2)n1 -15.5%, CCN1CCOC(=O)C1CC(=O)Nc1ccc(C)c(Cl)c1 (stereo unspecified) -12%, O=C(C1CCCCC1)N(Cc1cccnc1)c1nc2c(F)cc(F)cc2s1 -20.3%, COc1ccc(OC)c(NC(=O)c2c(NCc3ccc(OC)c(OC)c3)sc3c2CCC(C)C3)c1 (stereo unspecified) -12.4%, COc1ccc(CNC(=O)CCC2N=C3c4ccccc4N=C(SCc4ccc(F)cc4)N3C2=O)cc1 (stereo unspecified) -3.42%, Nc1c(C(=O)Nc2cccc(F)c2)sc2nc(-c3cccs3)ccc12 -10.1%, Cc1ccccc1OCCCCn1c(C2CC(=O)N(c3ccccc3Cl)C2)nc2ccccc21 (stereo unspecified) 2.18%, Nc1c(C(=O)NCCc2ccccc2)nnn1CC(=O)Nc1ccc(Cl)cc1 -12.9%, CCCn1c(CCC(=O)Nc2cccc(C)c2C)nc2cccnc21 -6.11%, COc1cc(NS(=O)(=O)c2ccc3[nH]c4c(c3c2)CCCC4)cc(OC)c1OC 1.51%, C=Cc1ccc(Cn2c(C(=O)O)c(CNCCc3ccccc3)c3ccc(C)cc32)cc1 5.13%, O=C(CSc1nc2c([nH]c3ccccc32)c(=O)n1-c1ccccc1)c1ccc(Cl)cc1 -8.87%, CCOC(=O)C1CCCN(c2c(C(=O)c3ccc(C)cc3)cnc3ccc(OCC)cc23)C1 (stereo unspecified) -17.5%, COc1ccc(CC(=O)Nc2ccc3nc(Nc4cccc(Cl)c4)cc(C)c3c2)cc1 -3.82%, Cc1ccc(Nc2c(-c3ccc(N4CCOCC4)cc3)nc3c(C)cccn23)cc1 -13.7%, Cc1cc(-c2ccc(S(=O)(=O)Nc3cc(Cl)ccc3C)s2)on1 -11%, COc1ccc(CCNC(=O)c2cc3c(-c4ccc(OC)c(OC)c4)nn(C)c3s2)cc1OC -19.8%, COCCn1c(SCC(=O)Nc2cccc(C)c2C)nc2c(oc3ccccc32)c1=O -11.2%, CCOC(=O)c1c(C)[nH]c(CCC(=O)NCc2cccc(OC)c2)c1C -28.7%, Cc1ccc(Cl)cc1N1CCN(C(=O)CCn2c(=O)c3cccn3c3cccnc32)CC1 4.26%, Cc1ccc(Cn2c(CO)cnc2SCc2cccc(F)c2)cc1 -12.5%, Cc1ccc(Cl)cc1N1CCN(C(=O)c2ccc(CS(=O)(=O)c3ccc(Br)cc3)o2)CC1 0.847%, Cc1oc2ncn(C)c(=O)c2c1C(=O)N(Cc1ccccc1)C(C)C -10.7%, Cc1cccc(CC(=O)NC2CC(=O)N(c3ccccc3)C2)c1 (stereo unspecified) 1.47%
